Source: paper PMC12040169 (PLOS Biology, 2025)
The other results are listed elsewhere or left out.

test system: T1, C. trachomatis L2/434/Bu expressing GFP (CTL2-GFP); set-up: species or system HeLa; C. trachomatis total inclusion area by high-content imaging, normalised to DMSO; settings: total inclusion area; 28.5 h, 10 µM; inhibitor
T1 construct: L2/434/Bu GFP intracellular growth in HeLa cells
Outline: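 High-content images of fixed, Hoechst-stained infected cultures supply inclusion area and count (growth) plus nuclei number (viability), complementing bulk GFP/resorufin fluorescence. MIC determination is unchanged from the primary assay.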

Compound | % of control remaining
CCc1nc2ccc(C(=O)Nc3ccc(C(N)=O)cc3)cn2c1N(C)CCC(C)C [CBK145476] | 101.194
CC(=O)N1CC(C(=O)Nc2ccccc2Cc2ccccc2)Oc2ccccc21 (stereo not shown) [CBK297525] | 90.2514
COc1ccc(C(C)C)cc1-c1ccc(C(=O)N2CCN(C)CC2)c(N(C)C)n1 [CBK106130] | 103.722
O=[N+]([O-])c1ccc(O)c(/C=N/Nc2nc(Nc3ccc(Cl)cc3)nc(N3CCOCC3)n2)c1 [CBK260918] | 99.8023
C=CCO[C@@H]1C[C@H]2C(=O)N3CC[C@H](NC(=O)[C@@H](O)c4ccccc4)C[C@H]3C(=O)N2C1 [CBK289556] | 69.088
CS(=O)(=O)N(Cc1cc2ccccc2nc1O)CC1CCCO1 (stereo not shown) [CBK269517] | 94.1128
CCCCN(C)c1c(CC)nc2ccc(C(=O)NC3=NC(=O)CS3)cn12 [CBK145464] | 59.9955
Cn1c(=O)c2c(nc(CN3CCN(c4ccccc4)CC3)n2Cc2ccccc2)n(C)c1=O [CBK269557] | 83.7113
Cc1cccc(CC(=O)N2CCC(Cc3ccccc3-c3ccccc3)(C(N)=O)CC2)c1 [CBK285731] | 101.675
CCC(CC)C(=O)Nc1nc(OC)cnc1-c1cc(Cl)cc(Cl)c1 [CBK145338] | 85.1896
Cc1cc(C)cc(C(=O)N2CCCC(C(=O)N3CCN(c4nccs4)CC3)C2)c1 (stereo not shown) [CBK298307] | 84.4024
Cc1cc(Cc2ccc(Cl)cc2)cc(C2CCN(C(=O)Cc3csc(C)n3)CC2)n1 [CBK286526] | 98.1735
O=C(O)c1ccc(CNC(=O)c2ccc(Cl)c(S(=O)(=O)N3CCCC3)c2)cc1 [CBK297096] | 79.3129
O=C(c1cc(-c2ccncc2)nc2ccc(Cl)cc12)N1CCN(C/C=C/c2ccccc2)CC1 [CBK267754] | 109.079
O=C(O)CCSc1nnc(-c2cccc(Br)c2)o1 [CBK286540] | 114.021
O=C(Nc1ccc2nc(SCc3ccc([N+](=O)[O-])cc3)sc2c1)c1ccccc1 [CBK263427] | 99.1233
O=C(Cn1cc(C(=O)NC2(c3ccccc3)CCCC2)ccc1=O)NC1CCCCC1 [CBK285986] | 109.992
CC(=O)Nc1ccc(Nc2nc(Br)cn3ccnc23)cc1 [CBK066338] | 123.012
O=C(COc1ccc(S(=O)(=O)NC2CCCC2)cc1)Nc1ccc2c(c1)OCCO2 [CBK266431] | 116.979
COC(=O)[C@@H](C)NC(=O)[C@H]1CN(C(=O)Nc2ccccc2)CCN1C(=O)c1cccs1 [CBK289629] | 127.802
COc1ccc(C(C)C)cc1-c1cc(NCCc2cccnc2)n2nccc2n1 [CBK037097] | 117.045
COc1cc(F)ccc1-c1ccc2ccc(NC(=O)C(C)C)nc2n1 [CBK073666] | 102.471
O=C(CC1S/C(=N/N=C/c2ccc(-c3ccc(Cl)c([N+](=O)[O-])c3)o2)NC1=O)Nc1ccccc1 (stereo not shown) [CBK264473] | 123.596
O=C(O)c1cccc(-n2nnnc2SCc2ccccn2)c1 [CBK266744] | 94.9659
CCc1nnc(SCc2ccc(CSc3nnc(CC)n3N)cc2)n1N [CBK265689] | 88.1759
CN(C)CCN(C)c1cc(-c2ccc(F)c(Cl)c2)nc2ccnn12 [CBK037230] | 125.31
CCCCNC(=O)OC1CCN(CCc2ccccc2)CC1 [CBK022839C] | 49.8343

Compound | % of control remaining
Cc1cc2c(cc3c(=O)n(CC(=O)OC(C)C)nc(C)n32)s1 [CBK284071] | 61.8952
CC(C)(C)C(Cn1cccn1)NC(=O)CCC(=O)O (stereo not shown) [CBK286897] | 72.8696
CC(C)(C)CC(NC(=O)C1CCCN(S(C)(=O)=O)C1)c1ccccc1 (stereo not shown) [CBK304563] | 41.8193
O=C(Cc1ccccc1)N/N=C/c1cccc2cccnc12 [CBK262778] | 110.494
Cc1cnc(CNC(=O)c2cnoc2-c2ccccc2)cn1 [CBK154926] | 94.3042
Cc1cc2nc(/C(C#N)=C/c3cc(C)n(-c4ccc(C(=O)O)cc4)c3C)[nH]c2cc1C [CBK269105] | 89.4286
CCOC(=O)C1CCCN(Cc2nc3cc(Cl)ccc3c(=O)[nH]2)C1 (stereo not shown) [CBK306198] | 56.0338
O=C(NCCc1ccc(O)cc1)C1(c2ccccc2)CCCC1 [CBK149535] | 81.2168
CCOC(=O)c1cnn(-c2cc(Oc3ccccc3)ncn2)c1N [CBK098284] | 80.9328
O=C(O)C1CCC(CNC(=O)C2Cc3ccccc3CN2)CC1 (stereo not shown) [CBK286745] | 79.9475
CSCc1nc2ccccc2n1CC(=O)N(CCC#N)Cc1ccco1 [CBK305440] | 93.1138
CC(C)[C@@H](Cn1nc(C2CC2)ccc1=O)NC(=O)c1ccco1 [CBK282321] | 118.221
COC(=O)NCCc1c[nH]c2ccc(OC)cc12 [CBK084597] | 97.9439
Cc1ccc(N2C(=O)/C(=C/c3ccc(O)c(O)c3)SC2=S)cc1C [CBK262756] | 36.1826
O=C(c1cc[nH]n1)N1CCC(c2cc3ccccc3cn2)CC1 [CBK284892] | 106.476
CC1CCN(S(=O)(=O)c2ccc(Oc3ccc([N+](=O)[O-])cc3)cc2)CC1 [CBK261774] | 108.029
COc1cncc(-c2cc(NC3CCCCC3)ncn2)c1 [CBK090903] | 133.335
CC(Oc1ccc2c(c1)OCO2)C(=O)NNC(=O)Nc1cccc(Cl)c1Cl (stereo not shown) [CBK266852] | 110.506
COc1ccc(OC)c(CN2CCCN(C)CC2)c1 [CBK261554] | 108.427
CN(C(=O)c1c[nH]nc1C1CCCN(Cc2ccnc3ccccc23)C1)C1CCCCC1 (stereo not shown) [CBK286491] | 105.668
CC(NC(=O)C(C)(C)C)c1nc(-c2ccncc2)n[nH]1 (stereo not shown) [CBK104074] | 92.0403
COc1ccc(C(C)N(CCN2CCOCC2)C(=O)NCc2cccc3ccccc23)cc1OC (stereo not shown) [CBK158984] | 59.3698
O=c1n(-c2ccc(Cl)c(Cl)c2)ccn1S(=O)(=O)CCc1cccc2ccccc12 [CBK106668] | 111.066
NC1=C2NC(c3cccc(C(=O)O)c3)=NN2N(c2ccccc2)N1 [CBK093663] | 102.022
CC(OC(=O)N1CCN(c2ccccc2)CC1)c1ccccc1 (stereo not shown) [CBK200243] | 101.067
COc1ccc(C2CC(c3ccccc3)=NN2c2ccc(S(N)(=O)=O)cc2)cc1OC (stereo not shown) [CBK268193] | 105.724
O=C(C1=C(O)C(=O)N(CCCn2ccnc2)C1c1ccncc1)c1ccccc1 (stereo not shown) [CBK264527] | 99.8799

Compound | % of control remaining
O=C(Nc1cccc2nsnc12)c1ccc(Cl)cc1 [CBK263793] | 101.538
CN(CC(=O)Nc1sc2c(c1C#N)CCCCC2)Cc1cnn(C)c1 [CBK304621] | 5.105
COC(=O)c1ccc(NC(=O)CC2Sc3ccc(C(F)(F)F)cc3NC2=O)cc1 (stereo not shown) [CBK264645] | 114.597
Cc1c(C(=O)O)sc2c1c(=O)n(Cc1ccccc1)c(=O)n2CCN(C)C [CBK286590] | 89.298
CC(=O)NC1=NC(=O)CN1C [CBK020181] | 42.4262
O=C(c1ccc(-c2nccnc2N2CCN(CCO)CC2)cc1)N1CCOCC1 [CBK036812] | 147.91
CCN1CCCCC1CNC(=O)c1cc(C2CC2)n[nH]1 (stereo not shown) [CBK282205] | 103.246
O=S(=O)(Cc1ccccc1)Nc1cccc2[nH]ccc12 [CBK159490] | 119.319
O=C(COc1ccccc1)NC1C(=O)N2C(C(=O)O)=C(Cl)CSC12 (stereo not shown) [CBK266903] | 107.126
O=C(NCC1COc2ccccc2O1)NC(=O)C1CCNCC1 (stereo not shown) [CBK051096] | 101.913
COc1ccc(NCc2cc(I)c(OCc3ccccc3)c(OC)c2)cc1 [CBK074452] | 61.3749
C[C@H]1CNCCN1c1nccnc1Cl [CBK047524F] | 43.3065
Fc1ccc(OCc2nn3cnnc3s2)cc1 [CBK287288] | 88.712
CCOc1ccc(S(=O)(=O)NCCCN2CCOCC2)c2ccccc12 [CBK018421] | 74.4928
CN(C)S(=O)(=O)c1ccc(CCC(=O)O)cc1 [CBK287216] | 101.649
Cc1sc(-c2ccc(Cl)nc2)nc1OC(=O)c1cccs1 [CBK067733] | 83.9147
C=CCn1c(Cc2csc(NC(=O)c3ccc(C(C)=O)s3)n2)n[nH]c1=S [CBK295299] | 117.633
CCN(C(=O)CC1SC(NCC2CCCCC2)=NC1=O)c1ccccc1 (stereo not shown) [CBK067373] | 111.38
COc1ccccc1C(=O)N1CCC(Cc2ccc(-c3cccc(C)c3)cc2)(C(N)=O)CC1 [CBK285792] | 89.2589
C[N+](C)(C)C1=C([O-])c2ccccc2C1=O [CBK009824] | 71.8752
N#Cc1ccccc1Cn1cc(C(=O)COc2ccccc2)c2ccccc21 [CBK268532] | 116.141
Clc1nccnc1N1CCCC1 [CBK083594] | 95.4047
Cc1ccc(S(=O)(=O)CCC(=O)Nc2ccc3sc(C)nc3c2)cc1 [CBK287706] | 85.0606
CC(C)(C)c1cc(C(C)(C)C)cc(S(=O)(=O)CCc2ccccn2)c1 [CBK261073] | 91.6619
CCNc1cc(-c2cccc(N)c2)ncn1 [CBK037731] | 57.553
